Laboratory results: the supplement of paper PMC11417369
± gives the standard deviation of the averaged measurements. This is one part of the list.

Test system: PfAP2-I AP2 domain 3 (GST-tagged)
Assay: gcPBM binding intensity (ln(normalized median fluorescence intensity)); higher = stronger DNA binding
How it was run: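 Using an Agilent 4 × 180k array, primer-extended double-stranded 36-bp intergenic genomic probes and negative controls were exposed for 1 h to GST-fused P. falciparum DNA-binding domains expressed in E. coli. Binding was carried out in 1× PBS with 1% milk, 0.2 mg/ml BSA, 0.5% salmon testes DNA and 0.03% Triton X-100, and protein was detected with Alexa488 anti-GST antibody and a 488 nm scan. Binding intensity is the highest Masliner-normalised natural-log median intensity across replicate spots of either probe orientation.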

Sequence	gcPBM binding intensity (ln)
ATATATATATATATATGTACACATATTATAAAAAAA [XGTACX_site8644]	9.17 ± 0.67
GTATTACATGAGGACACACACAAAAAAAATATATAT [CACACA_site769]	8.14 ± 0.54
TTATTATAAAAATGTAGTACAATACTTTTTTTTTTT [XGTACX_site732]	7.54 ± 0.078
TAATTATTTTAAAAAGTGCATTAAAAGATATTAAAT [GTGCAC_site9694]	11.4 ± 0.56
TATATATCTATAAACACACACCAAAATTTGTGCTTT [CACACA_site7448]	7.79 ± 0.46
ATATACTTTAAAGGTTAAGAAAGAAAAAAAAAAAAA [CACACA_negctrl_site956]	8.27 ± 0.88
ATATATATATATTATATGCACACGTTAAAATTTCAT [CACACA_site709]	9.65 ± 0.16
AAATAAAAAGAAAAGAAAAAGAAAATAAAAAGAGAA [XGTACX_negctrl_site14]	7.53 ± 0.67
ATAAAATGAACAAACACACACACATATATTTATATA [CACACA_site7181]	7.65 ± 0.44
GAATAAATAAGATACGTACACACATATACAAAATAT [CACACA_site3660]	8.04 ± 0.32
AAAAATAAATTTATATATTACAAGAACAAATATAGT [XGTACX_negctrl_site567]	7.96 ± 0.57
TTTTTTTAAAAAAAGGGTACATATATATATTTTTCT [XGTACX_site1066]	7.83 ± 0.5
ATAATATAAACGTATACACACAAGAGAAGCATAAAG [CACACA_site2889]	8.21 ± 0.88
AAAAGGAAAGGAAAGGGTACAATCCTATTATATTAT [XGTACX_site8652]	7.55 ± 0.75
GTCATATATAATTGTTGTACATTTTTATAATTATGT [XGTACX_site8091]	7.93 ± 0.44
AATTTTCTTAAAATTTGTACGTATATATTTAATATA [XGTACX_site3906]	7.78 ± 0.38
AATATAAATGTGATTACACACAACACATTTAAATGT [CACACA_site1212]	7.71 ± 0.57
AAAAAATTATATTATGCACACATCGTTATATATATA [CACACA_site1201]	9.85 ± 0.12
TATATATACTATAACACACATACACCCAAAAAAAAA [CACACA_site536]	8.34 ± 0.33
CTTATACATATATATAGTACATATATCATTTTTATG [XGTACX_site4462]	7.75 ± 0.4
TAAACAGACATATAAACACACATACATACATACATA [CACACA_site7215]	8 ± 0.68
TTTCATGACAATGTTTGTACATAATAAAATATATTT [XGTACX_site7039]	7.76 ± 0.33

Sequence	gcPBM binding intensity (ln)
TTAAAAAGATGTCACTGTACATAAAACATAAAATAT [XGTACX_site2886]	8.1 ± 0.54
GAAGAGACTTAGAAAACACACATACATAAGATAATT [CACACA_site5333]	7.58 ± 0.6
AAAAAAAAAAAAAAAACACACATAAAACTATAATAA [CACACA_site7758]	8.63 ± 0.52
ATATGTATCTCATCGTGTACATGTATATAATATATA [XGTACX_site4139]	7.89 ± 0.57
TTAGAAAAATTATATATACACACTTATATTTATATA [CACACA_site2821]	7.28 ± 0.4
ATATATCAAAATAATTGTACAAATTTTATATAATTT [XGTACX_site7249]	7.64 ± 0.38
ATATAGTAAAGTTATACACACATGAATTTTCCCATG [CACACA_site6923]	7.68 ± 0.79
TCGTGAATGATTTAAGTACACACCGGTATTTATTCA [CACACA_site1564]	7.49 ± 0.6
GCATAAACGGATAATTAATTATATTATATTATATCA [CACACA_negctrl_site1519]	7.49 ± 0.55
TTATCCTTGTAACAATGTACACATTATTTAATACTT [XGTACX_site1830]	8.04 ± 0.41
TATTGTTGTCTTTACACATGCAACAAAAGAAGAAAA [TGCATGCA_site911]	7.84 ± 0.42
ATTTATTTATATATATTATTTGTTTTAATTTACTTA [XGTACX_negctrl_site246]	7.4 ± 0.69
TTTTTTTTTTGATGCACACACCTGAACGAGTTAATA [CACACA_site4329]	9.64 ± 0.26
CATACAGATGGACACACACACACACCCACAGACAAA [CACACA_site4431]	8.04 ± 0.28
AACAGGTCATAATTTACACACTATATATCTTATTAT [CACACA_site6461]	8.13 ± 0.64
TTCATAAGAAGGAACTGTACATATTTTTCATTTTTT [XGTACX_site6770]	7.52 ± 0.54
TTATATGTATATATATGTATATATATATATATATAG [TGCATGCA_negctrl_site461]	8.02 ± 0.23
TACAATCTTTCATTATGTACTTAACATTTTTTCTGT [XGTACX_site8752]	7.89 ± 0.6
TGTATACCTTAATATACACACATACAGATATATATA [CACACA_site4860]	7.78 ± 0.64
CGATTTTTTTTTTATTGTACTTGCTCGCATGCAATA [XGTACX_site4727]	7.71 ± 0.59
TGTTTTATTTAGAAGGTGCACATTAATATTAAATAA	11.3 ± 0.45
ATATGCATTTTTATACGTACATATTTCTTTTCGTTA [XGTACX_site1497]	8.23 ± 0.54
